Measured values: the supplement of paper PMC4967469
By IC50 is meant the dose at which the fit gives 50% viability; a limit (>, <) means that the fit lies beyond the doses tested. AUC is the area under the same curve over the 256-fold range up to the top dose, as a fraction; values near 1 show little effect. Where the top dose is marked as inferred, it was derived from the fitted curves, not read from the paper.

Compound: C=CC(=O)Nc1cccc(Nc2nc(NC3CCC(N(C)C)CC3)nc3c2ncn3C(C)C)c1 [WZ3105]
Test: Viability of human cancer cell lines after 72 h of drug (GDSC screen)
Conditions: top dose inferred
Experimental: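 Human cancer cell lines in 384-well plates, medium with 10% serum, drug for 72 h over a 256-fold dose range (nine 2-fold or five 4-fold steps up to the top dose). Adherent lines were fixed and stained with the nucleic acid dye Syto60, suspension lines read with resazurin; signal relative to control wells, capped at 0 and 100%. One two-parameter sigmoid per drug and line, fitted in a mixed model over all curves with the slope shared within a line.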

Q: What does the source list for “AGS (stomach, adherent, top dose 1.28 µM)”?
A: AUC: 0.885; IC50: 1150 nM

Q: How did the AUC turn out when “ALL-PO (lymphoblastic leukaemia, suspension, top dose 1.28 µM)” was run?
A: Its AUC is 0.449.

Q: What about the IC50 of the same cell line?
A: The IC50 was 57.5 nM.

Q: For “ALL-SIL (T-cell leukaemia, suspension, top dose 10.24 µM)”, which AUC is on record?
A: The AUC was 0.112.

Q: What about the IC50 of the same cell line?
A: The IC50 was 47 nM.

Q: Which AUC does the source give for “AM-38 (glioma, semi-adherent, top dose 1.28 µM)” here?
A: The AUC was 0.916.

Q: What about the IC50 of the same cell line?
A: The IC50 was > 1280 nM.

Q: What does the source list for “AMO-1 (haematopoietic neoplasm, suspension, top dose 1.28 µM)”?
A: AUC: 0.732; IC50: 326 nM

Q: “AN3-CA (endometrium, adherent, top dose 1.28 µM)” was tested. Which AUC did it give?
A: The AUC was 0.676.

Q: What about the IC50 of the same cell line?
A: The IC50 was 262 nM.

Q: “ARH-77 (myeloma, suspension, top dose 1.28 µM)” was tested. Which AUC did it give?
A: The AUC was 0.764.

Q: What about the IC50 of the same cell line?
A: The IC50 was 447 nM.

Q: Which results are given for “ASH-3 (thyroid, adherent, top dose 1.28 µM)”?
A: AUC: 0.952; IC50: > 1280 nM

Q: “ATN-1 (T-cell lymphoblastic leukaemia, suspension, top dose 10.24 µM)” was tested. Which AUC did it give?
A: Its AUC is 0.199.

Q: And the IC50?
A: The IC50 was 88.5 nM.

Q: For “AU565 (breast, adherent, top dose 1.28 µM)”, which AUC is on record?
A: The AUC was 0.708.

Q: What about the IC50 of the same cell line?
A: Its IC50 is 334 nM.

Q: For “AsPC-1 (pancreas, adherent, top dose 1.28 µM)”, which AUC is on record?
A: The AUC was 0.887.

Q: And the IC50?
A: Its IC50 is > 1280 nM.

Q: For “BB30-HNC (head and neck, adherent, top dose 1.28 µM)”, which AUC is on record?
A: Its AUC is 0.897.

Q: What about the IC50 of the same cell line?
A: Its IC50 is > 1280 nM.

Q: Which results are given for “BB49-HNC (head and neck, adherent, top dose 1.28 µM)”?
A: AUC: 0.957; IC50: > 1280 nM

Q: What does the source list for “BB65-RCC (kidney, adherent, top dose 1.28 µM)”?
A: AUC: 0.983; IC50: > 1280 nM

Q: How did the AUC turn out when “BC-1 (B-cell lymphoma, suspension, top dose 1.28 µM)” was run?
A: Its AUC is 0.754.

Q: What about the IC50 of the same cell line?
A: Its IC50 is 375 nM.

Q: How did the AUC turn out when “BC-3 (B-cell lymphoma, suspension, top dose 1.28 µM)” was run?
A: The AUC was 0.632.

Q: And the IC50?
A: Its IC50 is 177 nM.

Q: How did the AUC turn out when “BCPAP (thyroid, adherent, top dose 1.28 µM)” was run?
A: Its AUC is 0.703.

Q: And the IC50?
A: Its IC50 is 279 nM.

Q: What does the source list for “BE2-M17 (neuroblastoma, adherent, top dose 1.28 µM)”?
A: AUC: 0.928; IC50: > 1280 nM

Q: How did the AUC turn out when “BE-13 (lymphoblastic leukaemia, suspension, top dose 1.28 µM)” was run?
A: The AUC was 0.549.

Q: What about the IC50 of the same cell line?
A: Its IC50 is 108 nM.

Q: For “BEN (non-small cell lung carcinoma, adherent, top dose 1.28 µM)”, which AUC is on record?
A: The AUC was 0.927.

Q: And the IC50?
A: Its IC50 is > 1280 nM.

Q: For “BFTC-905 (bladder, adherent, top dose 1.28 µM)”, which AUC is on record?
A: Its AUC is 0.783.

Q: And the IC50?
A: Its IC50 is 460 nM.

Q: For “BFTC-909 (kidney, adherent, top dose 1.28 µM)”, which AUC is on record?
A: Its AUC is 0.981.

Q: What about the IC50 of the same cell line?
A: Its IC50 is > 1280 nM.

Q: “BHT-101 (thyroid, adherent, top dose 1.28 µM)” was tested. Which AUC did it give?
A: The AUC was 0.981.

Q: What about the IC50 of the same cell line?
A: Its IC50 is > 1280 nM.

Q: Which AUC does the source give for “BHY (head and neck, adherent, top dose 1.28 µM)” here?
A: The AUC was 0.894.

Q: And the IC50?
A: Its IC50 is > 1280 nM.

Q: Which AUC does the source give for “BICR10 (head and neck, adherent, top dose 1.28 µM)” here?
A: Its AUC is 0.984.

Q: And the IC50?
A: Its IC50 is > 1280 nM.

Q: What does the source list for “BICR22 (head and neck, adherent, top dose 1.28 µM)”?
A: AUC: 0.882; IC50: > 1280 nM

Q: How did the AUC turn out when “BICR31 (head and neck, adherent, top dose 1.28 µM)” was run?
A: The AUC was 0.876.

Q: What about the IC50 of the same cell line?
A: Its IC50 is > 1280 nM.

Q: For “BICR78 (head and neck, adherent, top dose 1.28 µM)”, which AUC is on record?
A: Its AUC is 0.922.

Q: What about the IC50 of the same cell line?
A: Its IC50 is > 1280 nM.

Q: Which results are given for “BL-41 (Burkitt lymphoma, suspension, top dose 1.28 µM)”?
A: AUC: 0.497; IC50: 78.7 nM

Q: What does the source list for “BPH-1 (prostate, adherent, top dose 1.28 µM)”?
A: AUC: 0.542; IC50: 105 nM

Q: With “BT-20 (breast, adherent, top dose 1.28 µM)” as the cell line, how does the AUC read?
A: Its AUC is 0.868.

Q: What about the IC50 of the same cell line?
A: The IC50 was > 1280 nM.

Q: Which AUC does the source give for “BT-474 (breast, adherent, top dose 1.28 µM)” here?
A: Its AUC is 0.742.

Q: And the IC50?
A: Its IC50 is 433 nM.

Q: Which results are given for “BT-483 (breast, adherent, top dose 10.24 µM)”?
A: AUC: 0.666; IC50: 2820 nM

Q: Which AUC does the source give for “BV-173 (chronic myeloid leukaemia, suspension, top dose 1.28 µM)” here?
A: Its AUC is 0.575.

Q: And the IC50?
A: The IC50 was 125 nM.

Q: With “Becker (glioma, adherent, top dose 1.28 µM)” as the cell line, how does the AUC read?
A: The AUC was 0.887.

Q: And the IC50?
A: Its IC50 is > 1280 nM.

Q: “BxPC-3 (pancreas, adherent, top dose 1.28 µM)” was tested. Which AUC did it give?
A: Its AUC is 0.735.

Q: And the IC50?
A: Its IC50 is 412 nM.

Q: “C2BBe1 (large intestine, adherent, top dose 1.28 µM)” was tested. Which AUC did it give?
A: The AUC was 0.891.

Q: And the IC50?
A: Its IC50 is > 1280 nM.

Q: Which AUC does the source give for C3A (liver, adherent, top dose 1.28 µM) here?
A: The AUC was 0.988.

Q: And the IC50?
A: The IC50 was > 1280 nM.

Q: “C32 (melanoma, adherent, top dose 1.28 µM)” was tested. Which AUC did it give?
A: The AUC was 0.764.

Q: And the IC50?
A: Its IC50 is 495 nM.

Q: Which results are given for “C-4-I (cervix, adherent, top dose 1.28 µM)”?
A: AUC: 0.917; IC50: > 1280 nM

Q: Which AUC does the source give for “C-33-A (cervix, adherent, top dose 1.28 µM)” here?
A: The AUC was 0.876.

Q: What about the IC50 of the same cell line?
A: The IC50 was > 1280 nM.

Q: How did the AUC turn out when “CA46 (Burkitt lymphoma, suspension, top dose 1.28 µM)” was run?
A: The AUC was 0.568.

Q: And the IC50?
A: The IC50 was 125 nM.

Q: For “CADO-ES1 (Ewing sarcoma, suspension, top dose 1.28 µM)”, which AUC is on record?
A: The AUC was 0.954.

Q: What about the IC50 of the same cell line?
A: Its IC50 is > 1280 nM.

Q: Which AUC does the source give for “CAKI-1 (kidney, adherent, top dose 1.28 µM)” here?
A: Its AUC is 0.97.

Q: What about the IC50 of the same cell line?
A: Its IC50 is > 1280 nM.

Q: “CAL-12T (non-small cell lung carcinoma, adherent, top dose 1.28 µM)” was tested. Which AUC did it give?
A: The AUC was 0.805.

Q: What about the IC50 of the same cell line?
A: The IC50 was 737 nM.

Q: “CAL-27 (head and neck, adherent, top dose 1.28 µM)” was tested. Which AUC did it give?
A: The AUC was 0.782.

Q: And the IC50?
A: The IC50 was 545 nM.

Q: For “CAL-29 (bladder, adherent, top dose 1.28 µM)”, which AUC is on record?
A: Its AUC is 0.886.

Q: And the IC50?
A: The IC50 was > 1280 nM.

Q: “CAL-33 (head and neck, adherent, top dose 1.28 µM)” was tested. Which AUC did it give?
A: The AUC was 0.857.

Q: What about the IC50 of the same cell line?
A: Its IC50 is 1040 nM.

Q: Which AUC does the source give for “CAL-39 (cervix, adherent, top dose 1.28 µM)” here?
A: The AUC was 0.933.

Q: What about the IC50 of the same cell line?
A: Its IC50 is > 1280 nM.

Q: Which AUC does the source give for “CAL-51 (breast, adherent, top dose 1.28 µM)” here?
A: Its AUC is 0.975.

Q: And the IC50?
A: The IC50 was > 1280 nM.

Q: How did the AUC turn out when “CAL-54 (kidney, adherent, top dose 1.28 µM)” was run?
A: The AUC was 0.94.

Q: And the IC50?
A: The IC50 was > 1280 nM.

Q: How did the AUC turn out when “CAL-62 (thyroid, adherent, top dose 1.28 µM)” was run?
A: The AUC was 0.943.

Q: What about the IC50 of the same cell line?
A: Its IC50 is > 1280 nM.

Q: What does the source list for “CAL-72 (osteosarcoma, adherent, top dose 1.28 µM)”?
A: AUC: 0.984; IC50: > 1280 nM

Q: What does the source list for “CAL-78 (chondrosarcoma, adherent, top dose 1.28 µM)”?
A: AUC: 0.947; IC50: > 1280 nM

Q: “CAL-85-1 (breast, adherent, top dose 1.28 µM)” was tested. Which AUC did it give?
A: Its AUC is 0.706.

Q: And the IC50?
A: The IC50 was 364 nM.

Q: Which results are given for “CAL-120 (breast, adherent, top dose 1.28 µM)”?
A: AUC: 0.842; IC50: > 1280 nM

Q: With “CAL-148 (breast, suspension, top dose 1.28 µM)” as the cell line, how does the AUC read?
A: The AUC was 0.79.

Q: What about the IC50 of the same cell line?
A: Its IC50 is 521 nM.

Q: What does the source list for “CAMA-1 (breast, adherent, top dose 1.28 µM)”?
A: AUC: 0.778; IC50: 658 nM

Q: Which AUC does the source give for “CAPAN-1 (pancreas, adherent, top dose 1.28 µM)” here?
A: The AUC was 0.742.

Q: What about the IC50 of the same cell line?
A: Its IC50 is 433 nM.

Q: Which AUC does the source give for “CAS-1 (glioma, adherent, top dose 1.28 µM)” here?
A: The AUC was 0.798.

Q: And the IC50?
A: Its IC50 is 886 nM.
